# Source: the antibiotic and cytotoxicity screens of Wong et al. (2023)
# The other results are listed elsewhere or left out.
# Assays:
# HSkMC = human skeletal muscle cells; assay: cytotoxicity call (relative viability < 0.9); conditions: 10 µM
# HepG2 = assay: cytotoxicity call (relative viability < 0.9); conditions: 10 µM
# S. aureus RN4220 = assay: growth inhibition call (relative growth <= 0.2); conditions: 50 µM
SMILES,cytotoxicity call (HSkMC),cytotoxicity call (HepG2),growth inhibition call (S. aureus RN4220)
O=C(C[C@@H]1CC[C@H](NS(=O)(=O)c2ccccc2)[C@@H](CO)O1)NCc1ccncn1,inactive,inactive,inactive
Cc1ccc(S(=O)(=O)N(C)C[C@H]2Oc3ccc(NC(=O)Nc4cccc5ccccc45)cc3C(=O)N([C@H](C)CO)C[C@H]2C)cc1,inactive,inactive,inactive
CN1C(=O)c2cc(NC(=O)c3cnccn3)ccc2OC[C@H]2O[C@H](CC(=O)NCC3CCCCC3)CC[C@H]21,inactive,inactive,inactive
O=C(C[C@@H]1C[C@@H]2c3cc(NS(=O)(=O)c4ccc(F)cc4)ccc3O[C@@H]2[C@@H](CO)O1)NC1CCCCC1,inactive,inactive,inactive
C[C@H](CO)N1C[C@H](C)[C@H](CN(C)Cc2ccc(Oc3ccccc3)cc2)Oc2c(NS(=O)(=O)c3ccccc3)cccc2C1=O,inactive,inactive,inactive
Nc1nc2c(s1)CNCC2,inactive,inactive,inactive
C[C@@H]1CN([C@@H](C)CO)C(=O)c2cc(NS(=O)(=O)c3ccccc3)ccc2O[C@@H]1CN(C)S(=O)(=O)c1cccs1,inactive,inactive,inactive
C[C@H](CO)N1C[C@H](C)[C@@H](CN(C)C(=O)Nc2ccc3c(c2)OCO3)OCCCC[C@H](C)Oc2ccc(NC(=O)Nc3ccccc3)cc2C1=O,inactive,inactive,inactive
CO[C@H]1C[C@@H](C[C@@H](C)[C@H]2CC(=O)[C@H](C)/C=C(\C)[C@@H](O)[C@H](OC)C(=O)[C@H](C)C[C@H](C)/C=C/C=C\C=C(C)[C@H](OC)C[C@@H]3CC[C@@H](C)[C@@](O)(O3)C(=O)C(=O)N3CCCC[C@H]3C(=O)O2)CC[C@H]1OC(=O)C(C)(CO)CO,inactive,active,inactive
